± gives the standard deviation of the averaged measurements. Whole data set: some 33,000 sequences, median “E-score (dimensionless, -0.5 to 0.5)” near -0.049, cut for the highest 2% near 0.37. This is one part of the list.
Tested on: T1, PmTbr T-box DNA-binding domain (GST fusion)
T1 sequence: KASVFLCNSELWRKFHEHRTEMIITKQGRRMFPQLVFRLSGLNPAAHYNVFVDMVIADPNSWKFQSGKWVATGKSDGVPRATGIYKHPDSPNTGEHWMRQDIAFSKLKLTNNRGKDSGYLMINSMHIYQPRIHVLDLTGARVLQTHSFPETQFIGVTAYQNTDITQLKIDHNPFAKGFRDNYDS
Test: PBM E-score of 8-mer (E-score (dimensionless, -0.5 to 0.5)); Tbr is Tbrain of the sea star Patiria miniata (Pm) or the sea urchin Strongylocentrotus purpuratus (Sp); higher = stronger binding preference; most listed sequences are background and not binding sites
Settings: the construct has about 5 more residues each side
Outline: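 Using the Universal PBM Analysis Suite, every ungapped 8-mer received an enrichment E-score averaged over duplicate arrays. Probe intensities came from double-stranded Universal Agilent oligonucleotide arrays incubated with 200 nM GST-fused Tbr T-box DNA-binding domain in PBS (pH 7.5). That protein was expressed in BL21 E. coli at 20 °C and purified by glutathione affinity chromatography.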

| Sequence | PBM E-score of 8-mer |
| --- | --- |
| GAATTATC | 0.00993 ± 0.073 |
| CACAAAAC | 0.157 ± 0.028 |
| CCCCATCC | -0.124 ± 0.0024 |
| CAACAGTC | -0.0956 ± 0.065 |
| CGGTTTCC | 0.00347 ± 0.02 |
| AATCACGA | 0.0882 ± 0.0077 |
| CTCGTATC | 0.0014 ± 0.00064 |
| AGGTACAT | -0.316 ± 0.051 |
| CCCTAGGA | -0.0775 ± 0.091 |
| ACCAGGAC | -0.0452 ± 0.062 |
| ACAAGAAA | -0.234 ± 0.025 |
| AGAATGAG | -0.241 ± 0.0046 |
| AGGCGAGA | 0.401 ± 0.011 |
| CGTAGGAC | -0.0714 ± 0.064 |
| CCTTTCTA | -0.0136 ± 0.013 |
| GACACAAA | 0.124 ± 0.036 |
| CTCGTGCA | -0.00814 ± 0.022 |
| CGGAATCC | -0.269 ± 0.006 |
| CGCGATAC | 0.244 ± 0.01 |
| AATCCATA | -0.162 ± 0.027 |
| GCTTACTA | -0.228 ± 0.036 |
| ACAACGGG | 0.0346 ± 0.029 |

| Sequence | PBM E-score of 8-mer |
| --- | --- |
| AGAATCAC | 0.171 ± 0.015 |
| CCACGTCG | -0.0145 ± 0.18 |
| CGACTAGA | -0.146 ± 0.037 |
| CCAGGCTA | -0.0803 ± 0.0093 |
| ACTCACCG | -0.0077 ± 0.1 |
| CATTTGAC | -0.08 ± 0.12 |
| CCGACGGA | -0.182 ± 0.0088 |
| GTAGGACA | -0.0977 ± 0.038 |
| CTTGAGCA | -0.0771 ± 0.029 |
| ACGGCAAT | -0.103 ± 0.029 |
| CAGGCTCG | 0.116 ± 0.065 |
| TCACGTGA | 0.236 ± 0.029 |
| GTCCCAAA | -0.248 ± 0.049 |
| CTAACTAC | -0.0809 ± 0.0053 |
| GCGACTCA | 0.148 ± 0.019 |
| GGAACAAA | -0.232 ± 0.012 |
| GAAAATTA | -0.0611 ± 0.15 |
| CTAGGACC | -0.15 ± 0.0081 |
| AGTAGAGA | -0.165 ± 0.0094 |
| TACCGGAA | -0.0972 ± 0.041 |
| CTCGGTAC | -0.0869 ± 0.017 |
| CCCGACAA | 0.208 ± 0.044 |

| Sequence | PBM E-score of 8-mer |
| --- | --- |
| CCCGCGTA | -0.15 ± 0.1 |
| ACAATGGG | -0.0639 ± 0.019 |
| GCGCTCAC | 0.195 ± 0.0064 |
| CGTCTGTA | -0.0955 ± 0.033 |
| AGTATAAA | -0.14 ± 0.1 |
| AGGATGAA | -0.1541 ± 0.00086 |
| ATGGGCAC | -0.159 ± 0.019 |
| GAGCGGGC | -0.00946 ± 0.086 |
| AAAGCTCA | -0.089 ± 0.062 |
| AGACAATC | -0.0393 ± 0.0034 |
| GAAACCCA | -0.00855 ± 0.087 |
| CTTAACAA | 0.201 ± 0.041 |
| AGTCCCGG | 0.00453 ± 0.0029 |
| ATCTGTTG | 0.0136 ± 0.072 |
| TGAGACCA | 0.0461 ± 0.0096 |
| CACGTTAA | 0.11 ± 0.056 |
| AGCTGCGG | -0.217 ± 0.013 |
| GCGCTATA | 0.098 ± 0.016 |
| ACAGATCG | 0.14 ± 0.035 |
| CTGCACGC | -0.137 ± 0.069 |
| AAGCCTAG | -0.334 ± 0.0092 |
| GCTTATAA | -0.267 ± 0.046 |

| Sequence | PBM E-score of 8-mer |
| --- | --- |
| ACCGCAGA | -0.332 ± 0.019 |
| TCTCGAGA | -0.0629 ± 0.12 |
| AGATCAAT | -0.126 ± 0.013 |
| AGGTCTAT | -0.33 ± 0.011 |
| CTATATGC | -0.00958 ± 0.015 |
| CGACGCTA | 0.0458 ± 0.006 |
| GATCTAGC | -0.0665 ± 0.024 |
| CCGATAAG | -0.0389 ± 0.043 |
| AGCCGAGG | 0.0772 ± 0.059 |
| AATTTGAA | -0.207 ± 0.01 |
| ACATGTTA | 0.0442 ± 0.067 |
| CTAGTATC | -0.0952 ± 0.011 |
| AACATACT | -0.16 ± 0.059 |
| CATAAGCA | 0.0844 ± 0.044 |
| TAACACCA | 0.451 ± 0.0075 |
| AGGTGTGC | 0.44 ± 0.0051 |
| ACATTATG | -0.0843 ± 0.037 |
| AGCCTTAG | -0.287 ± 0.056 |
| GATTGAAA | -0.189 ± 0.023 |
| CCCGTGCA | -0.027 ± 0.095 |

— the supplement of paper PMC4166925
